The supplement of paper PMC4166925
± gives the standard deviation of the averaged measurements. In all, about 33,000 sequences were measured (“E-score (dimensionless, -0.5 to 0.5)”: median about -0.046, highest 2% from about 0.36 on). The list shows a part of the results.

System: T1, SpTbr T-box DNA-binding domain (GST fusion)
T1 sequence: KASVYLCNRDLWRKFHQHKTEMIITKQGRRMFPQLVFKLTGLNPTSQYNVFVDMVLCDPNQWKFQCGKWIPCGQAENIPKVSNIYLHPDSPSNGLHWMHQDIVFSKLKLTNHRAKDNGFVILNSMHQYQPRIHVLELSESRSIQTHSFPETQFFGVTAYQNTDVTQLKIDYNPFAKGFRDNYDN
Experiment: PBM E-score of 8-mer (E-score (dimensionless, -0.5 to 0.5)); Tbr is Tbrain of the sea star Patiria miniata (Pm) or the sea urchin Strongylocentrotus purpuratus (Sp); higher = stronger binding preference; most listed sequences are background and not binding sites
Conditions: the construct has about 5 more residues each side
Description: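 Universal protein-binding microarray (Agilent AMADID 016060, 60-bp probes with a 35-bp variable region) incubated with 200 nM GST-fused Strongylocentrotus purpuratus Tbr T-box DNA-binding domain (residues 362-554) in PBS pH 7.5. Scored for every ungapped 8-mer (given with its reverse complement) as E-score (range -0.5 to 0.5; >0.45 counts as bound) and Z-score of median probe intensity. Two replicate arrays (datasets 1 and 2).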
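Also: protein at 200 nM in PBS on universal double-stranded arrays.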

Row | Sequence | PBM E-score of 8-mer
1 | ATCCCTCC | -0.1562 ± 0.00086
2 | TCGCACCA | 0.434 ± 0.023
3 | GAGATTAC | 0.0619 ± 0.027
4 | CGCACGGA | 0.0299 ± 0.029
5 | CGGTCGCC | 0.0767 ± 0.062
6 | CTACACCC | 0.179 ± 0.12
7 | GCGGCCAC | -0.0648 ± 0.063
8 | GAACCGCC | -0.0733 ± 0.0011
9 | TCCCCGGA | -0.159 ± 0.0096
10 | CTAGTTTC | -0.105 ± 0.053
11 | CGTTCGCC | 0.11 ± 0.024
12 | CAGGGGAA | -0.152 ± 0.012
13 | CGTAAGGC | -0.169 ± 0.0086
14 | ACTTGTAG | 0.0359 ± 0.044
15 | GACTTAGC | 0.00445 ± 0.0068
16 | ACCTCGGC | 0.146 ± 0.0072
17 | ACAGTGCC | -0.0283 ± 0.038
18 | TCCTCGAA | -0.0695 ± 0.038
19 | GAAAATTC | -0.0558 ± 0.073
20 | ATCCGCAC | 0.319 ± 0.0057
21 | CACAATCA | 0.178 ± 0.038
22 | GGATACAC | -0.162 ± 0.016
23 | AGACGCAT | -0.152 ± 0.021
24 | CCATAAAG | -0.147 ± 0.033
25 | ATCTTGCC | -0.0917 ± 0.02

Row | Sequence | PBM E-score of 8-mer
26 | ACTGACTG | 0.101 ± 0.027
27 | TAATACTA | -0.225 ± 0.099
28 | AACGGACA | 0.0523 ± 0.035
29 | CCTAATGC | 0.0305 ± 0.048
30 | ACGGAGCC | -0.0943 ± 0.051
31 | AGGCGTAC | -0.116 ± 0.022
32 | CTGATAAC | 0.0585 ± 0.034
33 | ATCTAAAA | -0.224 ± 0.078
34 | AATTTTTC | 0.00787 ± 0.08
35 | CGCACTCC | 0.241 ± 0.039
36 | ACCCGAAT | 0.0131 ± 0.0018
37 | AGTGCAGA | 0.148 ± 0.042
38 | AACAAGTT | 0.133 ± 0.07
39 | ACTCCTCA | 0.0396 ± 0.023
40 | AGGTCGTA | -0.0447 ± 0.037
41 | AAAACCGC | 0.00843 ± 0.043
42 | AGTACAGC | -0.177 ± 0.018
43 | AAACTCCA | -0.00111 ± 0.082
44 | ATACAATC | -0.175 ± 0.038
45 | ACGACTAG | 0.089 ± 0.07
46 | ACGGGGCG | 0.0842 ± 0.016
47 | CACGACGC | 0.0258 ± 0.17
48 | CATGGCGC | 0.123 ± 0.024
49 | CGCCCGCC | 0.0256 ± 0.064
50 | AGATTTGC | -0.00795 ± 0.0031

Row | Sequence | PBM E-score of 8-mer
51 | ATCCATTA | -0.0833 ± 0.079
52 | CGCATCCG | 0.0231 ± 0.073
53 | AACGCATG | 0.0228 ± 0.0081
54 | ATACATCG | -0.0924 ± 0.14
55 | ATCGCCAA | 0.082 ± 0.066
56 | ACCATGCG | 0.0991 ± 0.1
57 | GGGTCGCA | 0.161 ± 0.04
58 | CATTGGTA | -0.0191 ± 0.061
59 | ATGTCCTC | 0.000325 ± 0.1
60 | GCTCTTGA | -0.0936 ± 0.022
61 | CGCCTATC | 0.177 ± 0.041
62 | AGTCATGG | -0.0576 ± 0.067
63 | ACTACCAG | -0.106 ± 0.028
64 | CGTGTGGC | 0.227 ± 0.026
65 | AGAGAATG | -0.14 ± 0.097
66 | AATAAAGT | -0.0833 ± 0.1
67 | TCTATCAA | -0.141 ± 0.0063
68 | GCTATGCC | -0.179 ± 0.013
69 | CCCTGCTA | 0.0606 ± 0.013
70 | TAACGCCA | 0.287 ± 0.011
71 | TGATTACA | 0.181 ± 0.027
72 | AGCTACTG | -0.1381 ± 0.00048
73 | ATGCCTAG | -0.258 ± 0.055
74 | CAACCTCC | 0.139 ± 0.03
75 | AGTATCCA | -0.118 ± 0.0082

Row | Sequence | PBM E-score of 8-mer
76 | ATCAAGAA | -0.219 ± 0.094
77 | AAGATGAA | -0.145 ± 0.019
78 | ACCCCTAT | -0.0129 ± 0.053
79 | GTCAACGA | 0.256 ± 0.054
80 | CGACCTGC | 0.177 ± 0.026
81 | CAGTGTGA | 0.393 ± 0.0076
82 | CGATGTGC | 0.244 ± 0.03
83 | GATGGCCA | -0.303 ± 0.027
84 | ACTCCCAC | 0.168 ± 0.048
85 | GTGCGTTA | 0.236 ± 0.012
86 | TGATACAA | 0.0954 ± 0.002
87 | ACCATTCT | -0.0407 ± 0.1
88 | CACCCTGA | 0.217 ± 0.054
89 | GACAGGAA | 0.0368 ± 0.027
90 | TAACTACA | 0.0924 ± 0.085
91 | CAAAACAC | 0.142 ± 0.11
92 | CACCCTCC | 0.303 ± 0.025
93 | CGATCCGA | -0.0614 ± 0.036
94 | CTGCGCAA | 0.0563 ± 0.0046
95 | CTGTATGA | -0.196 ± 0.066
96 | ACGTAGAG | -0.0816 ± 0.021
97 | AACGAGCT | -0.117 ± 0.012
98 | AAACCTTC | -0.199 ± 0.08
99 | AGTGGAAG | -0.141 ± 0.012
100 | ATGAACTG | 0.0309 ± 0.018

Row | Sequence | PBM E-score of 8-mer
101 | CCCGACTC | 0.103 ± 0.034
102 | GATTGTTA | 0.137 ± 0.0022
103 | CCAGTAGC | -0.0938 ± 0.092
104 | CCTCAGCG | -0.154 ± 0.046
105 | CGTAGCAG | 0.0623 ± 0.075
106 | GGACTTCA | -0.288 ± 0.012
107 | ACTTGGCA | 0.163 ± 0.034
108 | CGACGCAC | -0.103 ± 0.023
109 | GATGGACC | -0.0614 ± 0.066
110 | AGCCTATG | -0.165 ± 0.014
111 | GTTCTCAA | 0.19 ± 0.032
112 | ACTACAAG | -0.0799 ± 0.021
113 | ACTTCGCG | 0.349 ± 0.014
114 | GACATGAA | 0.126 ± 0.011
115 | CGCTTTCA | 0.0674 ± 0.06
116 | CGCGCACG | 0.229 ± 0.086
117 | CTACAAGA | -0.156 ± 0.024
118 | CGTCTGTC | 0.136 ± 0.045
119 | AATACTCG | 0.0591 ± 0.015
120 | CAGCTCCG | 0.0249 ± 0.014
121 | CTCTAACC | -0.166 ± 0.0037
122 | AACTATAA | -0.172 ± 0.029
123 | TAAGCCTA | -0.209 ± 0.074
124 | CTTCTAAC | 0.16 ± 0.038
125 | AAGCGTGC | 0.141 ± 0.046

Row | Sequence | PBM E-score of 8-mer
126 | TCTTTGCA | 0.137 ± 0.03
127 | CATGTAGC | -0.143 ± 0.069
128 | CCGCAGAA | -0.294 ± 0.015
129 | ATGACCCG | -0.084 ± 0.044
130 | GCATACGA | -0.124 ± 0.059
131 | CGTTTTCC | -0.282 ± 0.054
132 | CTCAGGTC | -0.186 ± 0.022
133 | GCCACCAC | 0.134 ± 0.041
134 | CTCAACCC | -0.189 ± 0.015
135 | CACTTGCC | 0.283 ± 0.064
136 | CATGACCC | -0.166 ± 0.043
137 | ATTTATGG | 0.00481 ± 0.012
138 | GGAACAGA | -0.0497 ± 0.048
139 | CTGCCTAA | -0.127 ± 0.075
140 | GGCGATGA | 0.114 ± 0.0014
141 | AGCCCGAG | -0.295 ± 0.075
142 | AGAGCTCT | -0.174 ± 0.047
143 | CGGCCAGC | -0.115 ± 0.036
144 | ACCAGCAC | 0.118 ± 0.065
145 | CCAAGCCG | -0.184 ± 0.089
146 | CCTCGAAA | -0.0758 ± 0.12
147 | AAGGAGTA | -0.284 ± 0.037
148 | ATCGTCTA | -0.0894 ± 0.035
149 | CGACGTGC | 0.238 ± 0.043
150 | CGAACTTA | 0.11 ± 0.008

Row | Sequence | PBM E-score of 8-mer
151 | AATTGTCG | 0.179 ± 0.055
152 | TATGGCCA | -0.256 ± 0.031
153 | AGTCGACA | 0.179 ± 0.051
154 | CTTAACTC | -0.0424 ± 0.024
155 | AAGGTATA | -0.182 ± 0.026
156 | ATCCGCGA | 0.144 ± 0.014
157 | TAAGCGCA | 0.00496 ± 0.048
158 | ACCAATGG | -0.0793 ± 0.064
159 | CACCCACC | 0.236 ± 0.023
160 | CCCCAGAA | -0.191 ± 0.042
161 | TAAGTTGA | -0.0099 ± 0.0011
162 | GGCATACA | -0.216 ± 0.045
163 | CCCAGAGC | -0.0127 ± 0.077
164 | ACAGTCAC | 0.27 ± 0.016
165 | ACTTCCCT | -0.11 ± 0.01
166 | CAGGCGTA | -0.0837 ± 0.018
167 | GAGTGCCC | -0.0162 ± 0.073
168 | GGTTCACA | 0.3973 ± 0.0018
169 | CCGTACTC | -0.0815 ± 0.035
170 | GGTCACCA | -0.115 ± 0.053
171 | CTATCGAG | 0.147 ± 0.013
172 | AAGCTAAT | -0.211 ± 0.012
